# Hit rate of the full screen: of about 310,000 compounds, about 14,000 (4.5%) showed an effect of 50% or more. Effects have a minus sign here. Some of the results follow. Where a SMILES comes first, the peptide text is derived from it. [ ]: non-standard residue; d: D form. The star is where a group is joined. Phe(4-Me) = Cc1ccc(C[CH](N)C(=O)O)cc1; Bz = O=C(c1ccccc1)*
# Molecular target: human ether-à-go-go-related gene (hERG) potassium channel (human, UniProt Q12809)
# Experiment: primary screen, population patch clamp on CHO cells stably expressing hERG
# 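Also: peak tail current of the secondary pulse compared with the same well before compound.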
# human ether-à-go-go-related gene (hERG) potassium channel, sequence (Q12809 whole entry, looked up): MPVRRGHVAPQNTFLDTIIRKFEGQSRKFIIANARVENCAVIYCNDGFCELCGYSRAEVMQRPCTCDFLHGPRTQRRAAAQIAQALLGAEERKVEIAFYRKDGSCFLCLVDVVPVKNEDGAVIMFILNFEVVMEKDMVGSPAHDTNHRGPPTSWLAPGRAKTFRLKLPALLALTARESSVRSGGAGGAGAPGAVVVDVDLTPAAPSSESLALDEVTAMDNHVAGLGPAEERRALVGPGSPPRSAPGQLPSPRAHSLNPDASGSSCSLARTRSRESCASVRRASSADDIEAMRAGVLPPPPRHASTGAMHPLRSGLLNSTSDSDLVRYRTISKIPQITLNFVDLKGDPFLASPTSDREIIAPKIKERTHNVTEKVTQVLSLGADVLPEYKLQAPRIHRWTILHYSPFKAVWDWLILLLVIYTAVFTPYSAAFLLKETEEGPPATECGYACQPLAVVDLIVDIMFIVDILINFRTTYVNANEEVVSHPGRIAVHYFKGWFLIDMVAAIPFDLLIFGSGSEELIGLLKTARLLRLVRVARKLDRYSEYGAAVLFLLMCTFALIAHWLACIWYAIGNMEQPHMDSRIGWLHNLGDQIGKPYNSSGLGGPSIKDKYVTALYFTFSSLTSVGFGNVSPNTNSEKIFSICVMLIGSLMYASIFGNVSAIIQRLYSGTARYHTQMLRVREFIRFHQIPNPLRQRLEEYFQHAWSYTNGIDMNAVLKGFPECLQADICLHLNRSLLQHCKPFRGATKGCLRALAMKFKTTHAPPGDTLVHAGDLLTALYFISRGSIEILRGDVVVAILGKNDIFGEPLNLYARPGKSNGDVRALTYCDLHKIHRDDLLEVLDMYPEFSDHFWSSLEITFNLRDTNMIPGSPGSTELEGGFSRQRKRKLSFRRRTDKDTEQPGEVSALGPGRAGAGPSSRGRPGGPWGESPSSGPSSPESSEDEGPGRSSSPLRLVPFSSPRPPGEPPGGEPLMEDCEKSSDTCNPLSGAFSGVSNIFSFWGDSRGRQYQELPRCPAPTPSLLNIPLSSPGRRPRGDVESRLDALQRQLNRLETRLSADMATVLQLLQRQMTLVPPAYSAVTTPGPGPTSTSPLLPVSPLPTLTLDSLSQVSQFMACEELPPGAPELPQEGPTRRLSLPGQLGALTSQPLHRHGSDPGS
row,SMILES,"hERG current change (%, negative = inhibition) at 10uM"
1,Fc1ccccc1CN1CCC(Cc2ccccc2)CC1,-24.4%
2,COc1ccc(OC)c(NC(=O)c2cc(-c3cc(Cl)ccc3O)n[nH]2)c1,4.33%
3,Cc1cc(NC(=O)c2ccc([N+](=O)[O-])cc2)n(C)n1,21.3%
4,CN(C)S(=O)(=O)c1cccc(COC(=O)C2=COCCO2)c1,9.47%
5,CCCSc1nnc(NC(=O)CCc2ccccc2)s1,20.5%
6,Cc1ccc(N2CC(C(=O)Nc3cc(C)on3)CC2=O)c(C)c1 (centres unmarked),10.7%
7,CC1Oc2ccccc2N(CC(=O)NC2CCCCC2)C1=O (centres unmarked),8.94%
8,COC(=O)C1(CCSC)NC(c2ccccc2F)C2C(=O)N(c3ccc4c(c3)OCCO4)C(=O)C21 (centres unmarked),10.1%
9,Clc1ccc(Cn2ncc3c(NCc4ccccc4)ncnc32)cc1,-1.94%
10,Cc1cccn2c(=O)c(C=O)c(Nc3ccc(S(N)(=O)=O)cc3)nc12,-10.9%
11,CCn1cc(C(=O)NCCc2ccc(C)cc2)c(=O)c2cc(S(=O)(=O)N(C)C)ccc21,14.8%
12,O=C(COc1ccc(S(=O)(=O)Nc2ccc(Cl)cc2)cc1)N1CCOCC1,-35.8%
13,C/C(=N\NC(=O)c1cc2ccccc2cc1O)c1cc2ccccc2o1,6.05%
14,CC(C)C(=O)N1CCN(c2ccc(NC(=O)c3ccco3)cc2Cl)CC1,-14.8%
15,Cc1cccc(-c2cc(C(=O)N/N=C/c3cccnc3)c3ccccc3n2)c1,-16.2%
16,CCCCCCc1nc(C(N)=O)c2[nH]c(=O)n(-c3ccc(OCC)cc3)c2n1,-4.25%
17,CC(C)Cc1nc(NCCN2CCOCC2)c(C#N)c2c1COC(C)(C)C2,-3.41%
18,CCCCn1c(N)c(N(CCOC)C(=O)Cn2c(=O)cnc3ccccc32)c(=O)[nH]c1=O,6.9%
19,CC(=O)C1CCC2C3CCC4CC(O)CCC4(C)C3CCC12C (centres unmarked),-4.97%
20,C=CCn1cc(-c2cccc(Cl)c2)cc(C#N)c1=O,1.65%
21,CN1C(=O)C2(OCC(COc3ccc(Cl)cc3)O2)c2ccccc21 (centres unmarked),8.19%
22,Cc1ccc(C23CC4CC(CC(C(=O)NC(C(=O)O)C(C)C)(C4)C2)C3)cc1 (centres unmarked),14%
23,CCCCc1nnc(NC(=O)c2ccc(-n3cncn3)c([N+](=O)[O-])c2)s1,-19.7%

row,SMILES,"hERG current change (%, negative = inhibition) at 10uM"
1,O=C(Nc1ccc(C(=O)O)cc1)/C(=C/c1cccc(Br)c1)NC(=O)c1ccco1,0.364%
2,CC1c2c([nH]c3ccccc23)CCC1C(=O)O (centres unmarked),22.4%
3,CC1CC(C)CN(CC(=O)Nc2ccc(S(N)(=O)=O)cc2)C1 (centres unmarked),13.7%
4,C=CCn1c(=O)/c(=C/c2cc(OC)c(OC)c(OC)c2)s/c1=C(/C#N)c1nc2ccccc2n1C,5.06%
5,O=C(O)c1ccc(N/N=C/c2cccc3nccnc23)cc1,21.4%
6,Cc1ccc(S(=O)(=O)NCCC(=O)N(C)Cc2cccs2)cc1,-14.2%
7,CCOC(=O)N1CCN(Cc2nc3cc(NC(=O)c4ccco4)ccc3n2C)CC1,-26.5%
8,C=CCn1c(-c2ccc(C)cc2)nc2ccccc21,-34.4%
9,CCCN(CC(=O)Nc1ccccc1C)C(=O)CCNC(=O)c1ccccc1Cl,-2.92%
10,O=S(=O)(c1ccc(F)cc1)N1CCN=C1SCc1cccnc1,-27.6%
11,COc1ccc(N2CCN(C(=S)Nc3cccc(C)c3)CC2)cc1,8.15%
12,COc1ccc(CCNCC2CCCO2)cc1.Cl (centres unmarked),0.687%
13,CCCCNc1nc(=S)n(-c2ccccc2)c(C)c1C(C)=O,5.44%
14,COCCNC(=O)c1cc(-c2ccncc2)nc2ccc(S(=O)(=O)N3CCOCC3)cc12,-32.3%
15,COC(=O)C(Cc1ccccc1)N1CCS(=O)(=O)CC1 (centres unmarked),28.6%
16,CCn1c(/C=C/c2ccc(O)c(O)c2)nc2ccccc2c1=O,13.6%
17,N#Cc1ccc(S(=O)(=O)N2CCC(N3CCCCC3)CC2)cc1,-58.3%
18,O=C(Nc1nnc(-c2cccnc2)o1)c1ccccc1Cl,20.7%
19,CC(=O)Oc1cc(C(C)C)c(OCCN(C)C)cc1C.Cl,-3.74%
20,CC1=C(C(=O)Nc2ccccn2)C(c2cn(C)nc2C)C2=C(CCCC2=O)N1 (centres unmarked),5.68%
21,CC1(C)OC(c2ccccc2)=C/C(=C/C=N/NC(=O)c2ccncc2)O1,-4.96%
22,Nc1nnc(CC(=O)N/N=C/c2ccccc2OCc2ccc(F)cc2)s1,6.22%
23,Nc1ncc(Br)cc1S(=O)(=O)NCCC(=O)NCCc1ccc(Cl)cc1,6.84%

row,SMILES,"hERG current change (%, negative = inhibition) at 10uM"
1,O=C(c1ccccc1)N1CCN(CCc2ccccn2)CC1,8.41%
2,O=CN(/C=C1\Sc2ccccc2C1=O)Cc1ccccc1,3.1%
3,Cc1cc(C)c2nc(N3CCC(C(=O)NCc4cccnc4)CC3)sc2c1,-79%
4,CCNC(=S)Nc1cc(OCC)c(NC(=O)c2ccco2)cc1OCC,-1.82%
5,CC(C)(C)c1nnc(NC(=O)c2cccnc2)s1,17.4%
6,CN1CCN(/N=C2/C(=O)Nc3ccc([N+](=O)[O-])cc32)CC1,-17.9%
7,CCOc1ccccc1N1CC(C(=O)NNC(=O)c2cc(OC)c(OC)c(OC)c2)CC1=O (centres unmarked),9%
8,Cc1ccccc1NS(=O)(=O)c1cc(C(=O)NCCSC2CCCCC2)ccc1C,15.1%
9,N#C/C(=C\Nc1ccc2cn[nH]c2c1)c1nc(-c2ccc(Cl)cc2)cs1,13.4%
10,COC(=O)CCSCC(=O)Nc1cc(C)on1,-14.4%
11,COc1ccc(S(=O)(=O)N2CCN(CCc3ccccc3)CC2)c(OC)c1,-25.6%
12,Cc1nc(-c2ccccc2O)n(S(=O)(=O)N(C)C)n1,-4.34%
13,N=C1c2ccccc2CN1c1ncccn1,-10.6%
14,Cc1ccc(S(=O)(=O)/N=C2/NC(=O)/C(=C\c3ccco3)S2)cc1,2.52%
15,CCOc1ccccc1NC(=O)C1CCCN1C(=O)c1cccs1 (centres unmarked),7.83%
16,Nn1c(SCC(=O)NC2CCCc3ccccc32)nnc1-c1cccs1 (centres unmarked),-5.07%
17,Cc1ccsc1C1C2=C(CCCC2=O)Nc2ncnn21 (centres unmarked),-0.73%
18,CCOc1ccc(C(=O)Nc2ncn[nH]2)cc1,19.1%
19,COc1cccc(CC2(CO)CCN(Cc3cccn3-c3cccnc3)CC2)c1,-47.7%
20,Cc1c(C(=O)Nc2ccccc2F)sc2nc3n(c(=O)c12)CCC3,17%
21,CCN(CC)CCN(Cc1cc2cc(C)ccc2[nH]c1=O)C(=S)NCc1ccco1,-43.4%
22,N#CCCn1c(C2CCCCC2)nc2ccccc21,-1.35%
23,CC(C)c1ccc(NC(=S)N2CCN(S(=O)(=O)c3ccccc3)CC2)cc1,13.6%

row,SMILES,"hERG current change (%, negative = inhibition) at 10uM"
1,CCc1ccc2c(CC(=O)Nc3cccc(S(=O)(=O)N4CCOCC4)c3)coc2c1,-0.796%
2,Cc1ccc(OC(=O)CCC(=O)N2CCc3ccccc32)cc1,1.95%
3,Cc1c(NS(=O)(=O)c2cc(C(=O)O)ccc2Cl)c(=O)n(-c2ccccc2)n1C,23.2%
4,CCOC(=O)C1=C(c2ccccc2)Nc2nc(C)nn2C1c1cccc(OC)c1OC (centres unmarked),5.72%
5,Cc1ccc(CC(NC(=O)c2ccccc2)C(=O)NC(Cc2ccccc2)C(=O)O)cc1 (centres unmarked) (Bz-[Phe(4-Me)]-Phe-OH; configuration not given here),8.66%
6,CCOCCCNC(=S)N1CCCC(c2nc3ccc(C)cc3[nH]2)C1 (centres unmarked),-4.41%
7,COc1ccc(Cn2c(=O)c3c(nc(NCCO)n3C)n(C)c2=O)cc1,12.3%
8,COc1cc([C@H]2[C@@H]3CCCC[C@]3(O)CCN2CC(=O)Nc2ccc(C)cc2)ccc1O,-6.06%
9,CCOc1cccc(OCCOCCN2CCCC2)c1,-10.1%
10,O=C(CCNS(=O)(=O)c1ccccc1)NCCCSc1ccccc1,-3.99%
11,Cc1cc(C)nc(SCCC(=O)Nc2cccc3ccccc23)n1,4.1%
12,COc1ccccc1NC(=O)Nc1ccc(CC#N)cc1,3.25%
13,O=C(N/N=C/c1cc(Br)c(O)c(Br)c1)c1cc2c(ccc3ccccc32)o1,2.81%
14,CC(=O)c1ccc(S(=O)(=O)N2CCC(NC(=O)c3ccccc3)CC2)cc1,15.2%
15,N#Cc1c(-c2ccc(Cl)cc2)c(C#N)c(=O)n(N)c1N,0.12%
16,Cc1ccc(NS(=O)(=O)c2c(C)noc2C)cc1,-55.1%
17,COc1ccccc1NC(=O)CSc1nc2sc3c(c2c(=O)n1-c1ccccc1)CCN(C)C3,-26%
18,O=C(CSc1nc2ccccc2n1CC(=O)N1CCCCC1)N1CCCCC1,-26.6%
19,COc1ccccc1/C=C1\SC(=S)N(CCC(=O)Nc2nnc(C)s2)C1=O,16.3%
20,O=C1CC(c2cccc(Cl)c2)CC(O)=C1C=NCCCO (centres unmarked),-0.247%
